69 compounds from PMC3199943, “Screening the MayBridge Rule of 3 Fragment Library for Compounds That Interact with the Trypanosoma brucei myo-Inositol-3-Phosphate Synthase and/or Show Trypanocidal Activity” (Molecular Biology International, 2011) can be followed below.

Counter-ions that a name gives are not always drawn.

For one assay, the system named is cultured bloodstream T. brucei (strain 427). The assay can be described thus: microbe, parasite or virus in culture. As to conditions: Trypanosoma brucei, read-out: T. brucei Alamar Blue. (In general: The colour change of resazurin is a common sign of viable cells or microbes.)
Regarding `O=C(O)C1CCCO1` (stereo not drawn) [compound 42, tetrahydro‐2‐furancarboxylic acid], the viability at 500 µM was found to be 108 ± 16.4%.
Still for that read-out and setting: next, `OCc1ccc(-c2ccco2)s1` [compound 458, [5‐(2‐furyl)thien‐2‐yl]methanol]: 71.4 ± 18%; `CCOC(=O)Cc1ccc(N)cc1` [compound 446, ethyl 2‐(4‐aminophenyl)acetate]: 111 ± 15.4%; `OCc1cccc(N2CCOCC2)c1` [compound 579, (3‐morpholinophenyl)methanol]: 69.7 ± 12.3%.
On the same count and under the same terms, the value for `N#Cc1ccc(OC2CCOCC2)cc1` [compound 645, 4‐(tetrahydropyran‐4‐yloxy)benzonitrile] was 121 ± 12.5%; that for `OCc1ccc(-c2ccccn2)s1` [compound 556, [5‐(2‐pyridinyl)‐2‐thienyl]methanol] was 128 ± 2.4%; that for `Cc1ccc(CO)o1` [compound 30, (5-methyl-2-furyl)methanol] was 45 ± 14.1%.
The same measure, in the same setting: next, `O=C1CCC2CC1CCC2=O` [compound 206, bicyclo[3.3.1]nonane‐2,6‐dione]: 93.2 ± 7.8%; `OCc1ccc(N2CCOCC2)s1` [compound 618, (5‐morpholinothien‐2‐yl)methanol]: 29.7 ± 4.6%; `Cn1cccc1C(=O)O` [compound 69, 1‐methyl‐1H‐pyrrole‐2‐carboxylic acid]: 99.1 ± 18.5%.
Consider `Nc1ccc2ncsc2c1` [compound 191, 1,3‐benzothiazol‐6‐amine], for which the viability at 500 µM stood at 47.7 ± 13.8%.
On the same count and under the same terms, the value for `N#Cc1c(N)cccc1F` [compound 115, 2‐amino‐6‐fluorobenzonitrile] was 90 ± 9.9%; that for `O=C(O)c1cccs1` [compound 85, thiophene‐2‐carboxylic acid] was 101 ± 12.4%.
Same read-out and setting: next, `Cc1csc(CC#N)n1` [compound 126, 2-(4-methyl-1,3-thiazol-2-yl)acetonitrile]: 75.3 ± 15.4%.
Same read-out and setting: next, `N#CCCNCc1ccco1` [compound 189, 3‐[(2‐furylmethyl)amino]propanenitrile]: 81.5 ± 19.2%; `Nc1cc(F)ccc1-n1ccnc1` [compound 420, 5‐fluoro‐2‐(1H‐imidazol‐1‐yl)aniline]: 77.6 ± 18.8%; `Nc1cccc(C(=O)c2ccccc2)c1` [compound 601, (3‐aminophenyl)(phenyl)methanone]: 97.7 ± 12.1%.
On to `Nc1ccc(Cn2ccnc2)cc1` [compound 375, 4‐(1H‐imidazol‐1‐ylmethyl)aniline], for which the viability at 500 µM was found to be 96.3 ± 7.6%.
Take `OC1CCC(C(F)(F)F)CC1` (stereo not drawn) [compound 333, 4‐(trifluoromethyl)cyclohexan‐1‐ol]: the viability at 500 µM turned out to be 99.1 ± 5.6%.
The same measure, in the same setting: next, `Nc1cccc(-n2cccc2)c1` [compound 251, 3‐(1H‐pyrrol‐1‐yl)aniline]: 29.2 ± 8.7%.
Still for that read-out and setting: next, `c1cnc2c(c1)OCCN2` [compound 118, 3,4‐dihydro‐2H‐pyrido[3,2‐b][1,4]oxazine]: 75.6 ± 3.7%; `OCCc1cccnc1` [compound 63, 2‐(3‐pyridyl)ethan‐1‐ol]: 84.6 ± 9.4%; `COC(=O)c1ccccc1C` [compound 183, methyl 2‐methylbenzoate]: 99 ± 14.4%.
Same read-out and setting: the value for `Nc1ccc2c(c1)OCO2` [compound 121, 1,3‐benzodioxol‐5‐amine] was 42.4 ± 11.3%; that for `Cc1nc(C(N)=S)cs1` [compound 252, 2‐methyl‐1,3‐thiazole‐4‐carbothioamide] was 92.9 ± 6.6%.
Consider `OCc1ccc2[nH]cnc2c1` [compound 170, 1H‐benzimidazol‐5‐ylmethanol], for which the viability at 500 µM was determined as 98.8 ± 1.6%.
The same measure, in the same setting: the value for `CNCc1cccc(-c2nccs2)c1` [compound 653, N‐methyl‐3‐(1,3‐thiazol‐2‐yl)benzylamine] was 26.6 ± 6.5%; that for `Cc1ccc2sc(CO)cc2c1` [compound 442, 5‐Methylbenzo[b]thiophene‐2‐methanol] was 30.5 ± 6%.
Same read-out and setting: the value for `c1ccc(Cn2cccc2)nc1` [compound 249, 2‐(1H‐pyrrol‐1‐ylmethyl)pyridine] was 79.2 ± 9.3%; that for `COC(=O)c1cscc1N` [compound 244, methyl 4‐aminothiophene‐3‐carboxylate] was 39.5 ± 14.5%.
Still for that read-out and setting: next, `Cc1ccccc1S(N)(=O)=O` [compound 355, 2‐methylbenzene‐1‐sulfonamide]: 98.8 ± 16%; `CNCc1ccc(Cl)cc1` [compound 231, N‐(4‐chlorobenzyl)‐N‐methylamine]: 86.3 ± 3.2%; `Cc1cc(C(=O)O)c(C(F)(F)F)o1` [compound 583, 5‐methyl‐2‐(trifluoromethyl)‐3‐furoic acid]: 98.2 ± 11.7%.
With `NCc1ccc(-c2ccco2)cc1` [compound 373, [4‐(2‐furyl)phenyl]methylamine], the viability at 500 µM came to 50.5 ± 24.8%.
On the same count and under the same terms, next, `Cc1csc(C(N)=O)c1` [compound 134, 4‐methylthiophene‐2‐carboxamide]: 73.7 ± 20.6%.
The same measure, in the same setting: next, `Nc1cc(Cl)cc(Cl)c1` [compound 282, 3,5‐dichloroaniline]: 78.4 ± 11.9%; `NC(=S)N1CCOCC1` [compound 159, morpholine‐4‐carbothioamide]: 113 ± 16.8%.
Same read-out and setting: the value for `Cc1nc(N)ccc1C#N` [compound 102, 6‐amino‐2‐methylnicotinonitrile] was 68.4 ± 19.6%; that for `N#CCc1ccc(O)cc1` [compound 98, 2‐(4‐hydroxyphenyl)acetonitrile] was 101.5 ± 0.9%; that for `Fc1ccc(N2CCNCC2)cc1` [compound 457, 1‐(4‐fluorophenyl)piperazine] was 32.3 ± 5.6%.
With `CC(=O)c1ccc(F)c(Cl)c1` [compound 367, 1‐(3‐chloro‐4‐fluorophenyl)ethan‐1‐one], the viability at 500 µM came out at 101 ± 10.3%.
As to `FC(F)(F)c1nc2ccccc2[nH]1` [compound 499, 2‐(trifluoromethyl)‐1H‐benzo[d]imidazole], the viability at 500 µM was 70.1 ± 5.1%.
Still for that read-out and setting: the value for `Nc1cccc(COc2ccccc2)c1` [compound 616, 3‐(phenoxymethyl)aniline] was 35.4 ± 10.2%; that for `Clc1ccsc1` [compound 48, 3‐chlorothiophene] was 108 ± 17.8%.
On to `OCc1ccc(OC(F)(F)F)cc1` [compound 563, [4‐(trifluoromethoxy)phenyl]methanol], for which the viability at 500 µM came out at 112 ± 10.3%.
On the same count and under the same terms, next, `N#Cc1c(N)cccc1Cl` [compound 210, 2‐amino‐6‐chlorobenzonitrile]: 93.5 ± 7.9%.
On the same count and under the same terms, the value for `N#Cc1ccc(-c2ccco2)nc1` [compound 344, 6‐(2‐furyl)nicotinonitrile] was 40.4 ± 13.9%; that for `Nc1cccc(CN2CCCC2)c1` [compound 415, 3‐(pyrrolidin‐1‐ylmethyl)aniline] was 47.4 ± 18.4%; that for `OCc1ncoc1-c1ccccc1` [compound 397, (5‐phenyl‐1,3‐oxazol‐4‐yl)methanol] was 24.2 ± 6.1%.
As for `Cn1c(=S)oc2ccccc21` [compound 310, 3‐methyl‐1,3‐benzoxazole‐2(3H)‐thione], the viability at 500 µM is 91.4 ± 3.7%.
The same measure, in the same setting: next, `OCc1ccnc(N2CCCCC2)c1` [compound 568, (2‐piperidinopyrid‐4‐yl)methanol]: 59.3 ± 16.3%; `Cc1ccsc1CN` [compound 83, (3‐methyl‐2‐thienyl)methylamine]: 95.7 ± 2.4%.
The same measure, in the same setting: the value for `NC(=O)c1ccccc1N1CCCCC1` [compound 651, 2‐piperidinobenzamide] was 31.6 ± 9.7%; that for `COC(=O)C1Cc2ccccc2N1` (stereo not drawn) [compound 422, methyl 2‐indolinecarboxylate] was 32.3 ± 8.4%; that for `O=C(C1CCNCC1)N1CCCC1` [compound 469, 4‐piperidinyl(1‐pyrrolidinyl)methanone] was 99.9 ± 7.5%.
With `O=C(O)c1ccc(-c2ccccc2)s1` [compound 649, 5‐phenylthiophene‐2‐carboxylic acid], the viability at 500 µM came out at 71.2 ± 14.3%.
On the same count and under the same terms, the value for `COC(=O)c1ccc(F)cc1Cl` [compound 531, methyl 2‐chloro‐4‐fluorobenzoate] was 104 ± 17%; that for `O=C1CCSc2ccc(Cl)cc21` [compound 609, 6-chloro-3,4-dihydro-2H-1-benzothiin-4-one] was 86.3 ± 6.6%.
Still for that read-out and setting: the value for `O=C(O)Cc1cc(F)cc(F)c1` [compound 359, 2‐(3,5‐difluorophenyl)acetic acid] was 95.2 ± 10.8%; that for `CCCc1nccs1` [compound 82, 2‐propyl‐1,3‐thiazole] was 81.1 ± 11.9%.
Still for that read-out and setting: the value for `Cc1nc(C(C)(C)C)cs1` [compound 229, 4‐(tert‐butyl)‐2‐methyl‐1,3‐thiazole] was 94.4 ± 6.3%.
On to `Oc1nc2ccc(Cl)cc2o1` [compound 342, 6‐chloro‐1,3‐benzoxazol‐2‐ol], for which the viability at 500 µM amounted to 111 ± 3.1%.
As to `OCc1nc2ccccc2s1` [compound 312, 1,3‐benzothiazol‐2‐ylmethanol], the viability at 500 µM came to 73.2 ± 12.2%.
Same read-out and setting: the value for `N#Cc1ccc(N)cc1C(F)(F)F` [compound 500, 4‐amino‐2‐(trifluoromethyl)benzonitrile] was 27 ± 2.3%.
As to `NCc1ccoc1` [compound 5, 3‐furylmethylamine], the viability at 500 µM was 79.2 ± 7.9%.
Regarding `OCc1cc(-c2cccs2)[nH]n1` [compound 459, (5‐thien‐2‐yl‐1H‐pyrazol‐3‐yl)methanol], the viability at 500 µM was found to be 41.2 ± 2.9%.

The assay is the same for the next values; noted with them: Trypanosoma brucei, read-out: T. brucei Alamar Blue (% survival).
In the case of `Cc1ccc(CO)o1` [compound 30, (5-methyl-2-furyl)methanol], the viability at 500 µM is 45 ± 14.1%.
`Cc1csc(CC#N)n1` [compound 126, 2-(4-methyl-1,3-thiazol-2-yl)acetonitrile]: the viability at 500 µM was found to be 75.3 ± 15.4%.
On the same count and under the same terms, the value for `O=C1CCSc2ccc(Cl)cc21` [compound 609, 6-chloro-3,4-dihydro-2H-1-benzothiin-4-one] was 86.3 ± 6.6%.

The same assay, now with this note: Trypanosoma brucei, read-out: T. brucei Alamar Blue, Supplementary Table 1; compound 0.5 mM; percentage of controls in the absence of compound; mean ± SD (n=3) or SE (n=2).
Turning to `Nc1cccc(N)c1` [compound 461, benzene‐1,3‐diamine dihydrochloride], the viability at 500 µM worked out at 97.3 ± 16.9%.
As to `Nc1nc(-c2ccc(O)cc2)cs1` [compound 565, 4‐(2‐amino‐1,3‐thiazol‐4‐yl)phenol], the viability at 500 µM was 48.7 ± 19.3%.
The same measure, in the same setting: the value for `Oc1ncnc2cccc(F)c12` [compound 296, 5‐fluoroquinazolin‐4‐ol] was 80.2 ± 9.5%.
